Assay results as given in patent publication US9023789B2, “Amylin analogs and pharmaceutical compositions thereof” (Novo Nordisk A/S, priority 2012, dated 2015).
At least one read-out could not be matched to a standard name with certainty. Numbered stars: 1 amine (or outer) side, 2 acyl side, 3 side chain; on linkers, the order of the positions; unused ones are H or OH. Bridge positions count the residues as written; N and C are the ends. Side chains are listed from the residue outwards. Peptide text beside a SMILES is read from it. * marks the point of attachment. C20 diacid = O=C(O)CCCCCCCCCCCCCCCCCCC(=O)*; γGlu = O=C(O)[C@H](CCC(=O)[*:2])N[*:1]; AEEA = NCCOCCOCC(=O)O

assay: ASSAY (III) ThT fibrillation assay for physical stability; type: physicochemical
Procedure, shortened: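 Formulations with 1 μM ThT, pH adjusted as required, incubated at 37 °C with 960 rpm orbital shaking; fluorescence (ex 444/em 485 nm) read every 20 min. Fibrillation reported as mean ThT fluorescence ± SD of 4–8 replicates at time points; polypeptide concentration measured by reverse-phase HPLC before and after, post-centrifugation.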

Structure (SMILES) | ThT pH 4.0 recovery (%)
CC[C@H](C)[C@H](NC(=O)[C@H](C)NC(=O)CNC(=O)[C@H](Cc1ccccc1)NC(=O)[C@H](CC(N)=O)NC(=O)[C@@H]1CCCN1C(=O)[C@H](CO)NC(=O)[C@H](CO)NC(=O)[C@H](Cc1c[nH]cn1)NC(=O)[C@H](CCCNC(=N)N)NC(=O)[C@H](CC(C)C)NC(=O)[C@H](Cc1ccccc1)NC(=O)[C@H](Cc1c[nH]cn1)NC(=O)[C@H](C)NC(=O)[C@H](CC(C)C)NC(=O)[C@H](CCCNC(=N)N)NC(=O)[C@H](CCC(N)=O)NC(=O)[C@@H](NC(=O)[C@H](C)NC(=O)[C@@H]1CSSC[C@H](NC(=O)[C@@H](N)CCCCNC(=O)CC[C@H](NC(=O)CCCCCCCCCCCCCCCCCCC(=O)O)C(=O)O)C(=O)N[C@@H](CC(N)=O)C(=O)N[C@@H]([C@@H](C)O)C(=O)N[C@@H](C)C(=O)N[C@@H]([C@@H](C)O)C(=O)N1)[C@@H](C)O)C(=O)N1CCC[C@H]1C(=O)N[C@@H](CO)C(=O)N[C@@H](CO)C(=O)N[C@H](C(=O)N[C@@H](CC(N)=O)C(=O)N[C@H](C(=O)NCC(=O)N[C@@H](CO)C(=O)N[C@@H](Cc1c[nH]cn1)C(=O)N[C@H](C(=O)N[C@@H](Cc1ccc(O)cc1)C(N)=O)[C@@H](C)O)C(C)C)[C@@H](C)O [Example 66] (H-K([γGlu-C20 diacid])CNTATCATQRLAHFLRHSSPNFGAIPSSTNVGSHTY-NH2; disulfide 2-7; N-terminus assumed) | 88%
CC[C@H](C)[C@H](NC(=O)[C@H](C)NC(=O)CNC(=O)[C@H](Cc1ccccc1)NC(=O)[C@H](CC(N)=O)NC(=O)[C@@H]1CCCN1C(=O)[C@H](CO)NC(=O)[C@H](CO)NC(=O)[C@H](Cc1c[nH]cn1)NC(=O)[C@H](CCCNC(=N)N)NC(=O)[C@H](CC(C)C)NC(=O)[C@H](Cc1ccccc1)NC(=O)[C@H](Cc1c[nH]cn1)NC(=O)[C@H](C)NC(=O)[C@H](CC(C)C)NC(=O)[C@H](CCCNC(=N)N)NC(=O)[C@H](CCC(N)=O)NC(=O)[C@@H](NC(=O)[C@H](C)NC(=O)[C@@H]1CSSC[C@H](NC(=O)[C@@H](N)CCCCNC(=O)CC[C@H](NC(=O)CCCCCCCCCCCCCCCCCCC(=O)O)C(=O)O)C(=O)N[C@@H](CC(N)=O)C(=O)N[C@@H]([C@@H](C)O)C(=O)N[C@@H](C)C(=O)N[C@@H]([C@@H](C)O)C(=O)N1)[C@@H](C)O)C(=O)N1CCC[C@H]1C(=O)N[C@@H](CO)C(=O)N[C@@H](CO)C(=O)N[C@H](C(=O)N[C@@H](CC(N)=O)C(=O)N[C@H](C(=O)NCC(=O)N1CCC[C@H]1C(=O)N[C@@H](CC(N)=O)C(=O)N[C@H](C(=O)N[C@@H](Cc1ccc(O)cc1)C(N)=O)[C@@H](C)O)C(C)C)[C@@H](C)O [Example 67] (H-K([γGlu-C20 diacid])CNTATCATQRLAHFLRHSSPNFGAIPSSTNVGPNTY-NH2; disulfide 2-7 (inferred); N-terminus assumed) | 58%
CC[C@H](C)[C@H](NC(=O)[C@H](C)NC(=O)CNC(=O)[C@H](Cc1ccccc1)NC(=O)[C@H](CC(N)=O)NC(=O)[C@@H]1CCCN1C(=O)[C@H](CO)NC(=O)[C@H](CO)NC(=O)[C@H](Cc1c[nH]cn1)NC(=O)[C@H](CCCNC(=N)N)NC(=O)[C@H](CC(C)C)NC(=O)[C@H](Cc1ccccc1)NC(=O)[C@H](Cc1c[nH]cn1)NC(=O)[C@H](C)NC(=O)[C@H](CC(C)C)NC(=O)[C@H](CCCNC(=N)N)NC(=O)[C@H](CCC(N)=O)NC(=O)[C@@H](NC(=O)[C@H](C)NC(=O)[C@@H]1CSSC[C@H](NC(=O)[C@@H](N)CCCCNC(=O)COCCOCCNC(=O)CC[C@H](NC(=O)CCCCCCCCCCCCCCCCCCC(=O)O)C(=O)O)C(=O)N[C@@H](CC(N)=O)C(=O)N[C@@H]([C@@H](C)O)C(=O)N[C@@H](C)C(=O)N[C@@H]([C@@H](C)O)C(=O)N1)[C@@H](C)O)C(=O)N1CCC[C@H]1C(=O)N[C@@H](CO)C(=O)N[C@@H](CO)C(=O)N[C@H](C(=O)N[C@@H](CC(N)=O)C(=O)N[C@H](C(=O)NCC(=O)N1CCC[C@H]1C(=O)N[C@@H](CC(N)=O)C(=O)N[C@H](C(=O)N[C@@H](Cc1ccc(O)cc1)C(N)=O)[C@@H](C)O)C(C)C)[C@@H](C)O [Example 68] (H-K([AEEA-γGlu-C20 diacid])CNTATCATQRLAHFLRHSSPNFGAIPSSTNVGPNTY-NH2; disulfide 2-7) | 73%
CC[C@H](C)[C@H](NC(=O)[C@H](C)NC(=O)CNC(=O)[C@H](Cc1ccccc1)NC(=O)[C@H](CC(N)=O)NC(=O)[C@@H]1CCCN1C(=O)[C@H](CO)NC(=O)[C@H](CO)NC(=O)[C@H](Cc1c[nH]cn1)NC(=O)[C@H](CCCNC(=N)N)NC(=O)[C@H](CC(C)C)NC(=O)[C@H](Cc1ccccc1)NC(=O)[C@H](Cc1c[nH]cn1)NC(=O)[C@H](C)NC(=O)[C@H](CC(C)C)NC(=O)[C@H](CCCNC(=N)N)NC(=O)[C@H](CCC(N)=O)NC(=O)[C@@H](NC(=O)[C@H](C)NC(=O)[C@@H]1CSSC[C@H](NC(=O)[C@@H](N)CCCCNC(=O)COCCOCCNC(=O)CC[C@H](NC(=O)CCCCCCCCCCCCCCCCCCC(=O)O)C(=O)O)C(=O)N[C@@H](CC(N)=O)C(=O)N[C@@H]([C@@H](C)O)C(=O)N[C@@H](C)C(=O)N[C@@H]([C@@H](C)O)C(=O)N1)[C@@H](C)O)C(=O)N1CCC[C@H]1C(=O)N[C@@H](CO)C(=O)N[C@@H](CO)C(=O)N[C@H](C(=O)N[C@@H](CC(N)=O)C(=O)N[C@H](C(=O)NCC(=O)N[C@@H](CO)C(=O)N[C@@H](CC(N)=O)C(=O)N[C@H](C(=O)N[C@@H](Cc1ccc(O)cc1)C(N)=O)[C@@H](C)O)C(C)C)[C@@H](C)O [Example 69] (H-K([AEEA-γGlu-C20 diacid])CNTATCATQRLAHFLRHSSPNFGAIPSSTNVGSNTY-NH2; disulfide 2-7; N-terminus assumed) | 13%
CC[C@H](C)[C@H](NC(=O)[C@H](C)NC(=O)CNC(=O)[C@H](Cc1ccccc1)NC(=O)[C@H](CC(N)=O)NC(=O)[C@@H]1CCCN1C(=O)[C@H](CO)NC(=O)[C@H](CO)NC(=O)[C@H](Cc1c[nH]cn1)NC(=O)[C@H](CCCNC(=N)N)NC(=O)[C@H](CC(C)C)NC(=O)[C@H](Cc1ccccc1)NC(=O)[C@H](Cc1c[nH]cn1)NC(=O)[C@H](C)NC(=O)[C@H](CC(C)C)NC(=O)[C@H](CCCNC(=N)N)NC(=O)[C@H](CCC(N)=O)NC(=O)[C@@H](NC(=O)[C@H](C)NC(=O)[C@@H]1CSSC[C@H](NC(=O)[C@@H](N)CCCCNC(=O)CC[C@H](NC(=O)CCCCCCCCCCCCCCCCCCC(=O)O)C(=O)O)C(=O)N[C@@H](CC(N)=O)C(=O)N[C@@H]([C@@H](C)O)C(=O)N[C@@H](C)C(=O)N[C@@H]([C@@H](C)O)C(=O)N1)[C@@H](C)O)C(=O)N1CCC[C@H]1C(=O)N[C@@H](CO)C(=O)N[C@@H](CO)C(=O)N[C@H](C(=O)N[C@@H](CC(N)=O)C(=O)N[C@H](C(=O)NCC(=O)N[C@@H](CO)C(=O)N[C@@H](CC(N)=O)C(=O)N[C@H](C(=O)N[C@@H](Cc1ccc(O)cc1)C(N)=O)[C@@H](C)O)C(C)C)[C@@H](C)O [Example 70] (H-K([γGlu-C20 diacid])CNTATCATQRLAHFLRHSSPNFGAIPSSTNVGSNTY-NH2; disulfide 2-7; N-terminus assumed) | 0%
CC[C@H](C)[C@H](NC(=O)[C@H](C)NC(=O)CNC(=O)[C@H](Cc1ccccc1)NC(=O)[C@H](CC(N)=O)NC(=O)[C@@H]1CCCN1C(=O)[C@H](CO)NC(=O)[C@H](CO)NC(=O)[C@H](Cc1c[nH]cn1)NC(=O)[C@H](CCCNC(=N)N)NC(=O)[C@H](CC(C)C)NC(=O)[C@H](Cc1ccccc1)NC(=O)CNC(=O)[C@H](C)NC(=O)[C@H](CC(C)C)NC(=O)[C@H](CCCNC(=N)N)NC(=O)[C@H](CCC(N)=O)NC(=O)[C@@H](NC(=O)[C@H](C)NC(=O)[C@@H]1CSSC[C@H](NC(=O)[C@@H](N)CCCCNC(=O)COCCOCCNC(=O)CC[C@H](NC(=O)CCCCCCCCCCCCCCCCCCC(=O)O)C(=O)O)C(=O)N[C@@H](CC(N)=O)C(=O)N[C@@H]([C@@H](C)O)C(=O)N[C@@H](C)C(=O)N[C@@H]([C@@H](C)O)C(=O)N1)[C@@H](C)O)C(=O)N1CCC[C@H]1C(=O)N[C@@H](CO)C(=O)N[C@@H](CO)C(=O)N[C@H](C(=O)N1CCC[C@H]1C(=O)N[C@H](C(=O)NCC(=O)N[C@@H](CO)C(=O)N[C@@H](CC(N)=O)C(=O)N[C@H](C(=O)N[C@@H](Cc1ccc(O)cc1)C(N)=O)[C@@H](C)O)C(C)C)[C@@H](C)O [Example 71] (H-K([AEEA-γGlu-C20 diacid])CNTATCATQRLAGFLRHSSPNFGAIPSSTPVGSNTY-NH2; disulfide 2-7) | 0%
CC[C@H](C)[C@H](NC(=O)[C@H](C)NC(=O)CNC(=O)[C@H](Cc1ccccc1)NC(=O)[C@H](CC(N)=O)NC(=O)[C@@H]1CCCN1C(=O)[C@H](CO)NC(=O)[C@H](CO)NC(=O)[C@H](Cc1c[nH]cn1)NC(=O)[C@H](CCCNC(=N)N)NC(=O)[C@H](CC(C)C)NC(=O)[C@H](Cc1ccccc1)NC(=O)[C@H](C)NC(=O)[C@H](C)NC(=O)[C@H](CC(C)C)NC(=O)[C@H](CCCNC(=N)N)NC(=O)[C@H](CCC(N)=O)NC(=O)[C@@H](NC(=O)[C@H](C)NC(=O)[C@@H]1CSSC[C@H](NC(=O)[C@@H](N)CCCCNC(=O)COCCOCCNC(=O)CC[C@H](NC(=O)CCCCCCCCCCCCCCCCCCC(=O)O)C(=O)O)C(=O)N[C@@H](CC(N)=O)C(=O)N[C@@H]([C@@H](C)O)C(=O)N[C@@H](C)C(=O)N[C@@H]([C@@H](C)O)C(=O)N1)[C@@H](C)O)C(=O)N1CCC[C@H]1C(=O)N[C@@H](CO)C(=O)N[C@@H](CO)C(=O)N[C@H](C(=O)N1CCC[C@H]1C(=O)N[C@H](C(=O)NCC(=O)N[C@@H](CO)C(=O)N[C@@H](CC(N)=O)C(=O)N[C@H](C(=O)N[C@@H](Cc1ccc(O)cc1)C(N)=O)[C@@H](C)O)C(C)C)[C@@H](C)O [Example 72] (H-K([AEEA-γGlu-C20 diacid])CNTATCATQRLAAFLRHSSPNFGAIPSSTPVGSNTY-NH2; disulfide 2-7 (inferred); N-terminus assumed) | 0%
